# From the supplement of paper PMC8728848
# Some of the results follow.
# B1: PX9961H-bth-557-24-557 (Bacteroides thetaiotaomicron) (protein)
# chain: EETRTEVEKKNYMNNAEEAKDVLLGVYRTNTLDAMYGYYLSILFNLGTDISQVEGSGNENFRIIPTNSFPTTQSEVQQTWAALYTGIYRANDFLERISNKIGSYTTTDKKLATLYIAEARALRGMFYFELVRRFGNVVLMTSTQMSNQNPATYVQSAPEKVYEYIEDDLLYACDILPYATDDQYRESNDYRFSKGAALGLLTKVYATWAGYPVKDESKWEAAAKTARILVESGKHGLLKDYEQLWKNTCNGTWDPTESLIEISFYSPTVSGNSDPVGRIGKWNGVKTTAIAGVRGSCAANVKVVHTFVLDWREDVSDIRRDLSIANYQYTDTKKSLWVAGASDTDESAAEKDADPTKAQKNKQNYTPAKWDIQKYVTTNSFINNDKSNVNWYFLRYADVLLLYAEALNEWKHGPDAEAYNAINAVRRRGYGNPSNTSACDLPQGLDETSFREAVRKERSYELSFEGHRRQDLIRWGIYYKTVQATAKELGYWWEGTGSPNYSVATYTEEGKHELFPIPQRDMDLCIQFNQNPKW
# Columns and labels:
# Experiment in all cases: glycan array binding signal (z-score within array); higher = stronger binding
# Details in all cases: glycan notation: IUPAC condensed, linker removed
# [1] = target: Neu5Ac(a2-3)Gal(b1-3)GalNAc
# Method in brief: (§1)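 Columns mapping to the same glycan were averaged after glycan names were converted to IUPAC-condensed notation. The data come from 3228 arrays in the Consortium for Functional Glycomics database, limited to those with an available protein sequence. Binding is reported as a within-array Z-score averaged across arrays of one protein sequence and across linkers.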
# [2] = target: Neu5Ac(a2-3)Gal(b1-3)GalNAc(b1-3)Gal(a1-4)Gal(b1-4)Glc
# Method in brief: as §1
# [3] = target: Neu5Ac(a2-3)Gal(b1-3)GalNAc(b1-4)[Neu5Ac(a2-3)]Gal(b1-4)Glc
# Method in brief: as §1
# [4] = target: Neu5Ac(a2-3)Gal(b1-3)GalNAc(b1-4)[Neu5Ac(a2-8)Neu5Ac(a2-3)]Gal(b1-4)Glc
# Method in brief: as §1
# [5] = target: Neu5Ac(a2-3)Gal(b1-3)GalNAc6S
# Method in brief: as §1
# [6] = target: Neu5Ac(a2-3)Gal(b1-3)GlcNAc
# Method in brief: as §1
# [7] = target: Neu5Ac(a2-3)Gal(b1-3)GlcNAc(b1-2)Man
# Method in brief: as §1
# [8] = target: Neu5Ac(a2-3)Gal(b1-3)GlcNAc(b1-2)Man(a1-3)[GlcNAc(b1-4)][Neu5Ac(a2-3)Gal(b1-3)GlcNAc(b1-2)Man(a1-6)]Man(b1-4)GlcNAc(b1-4)GlcNAc
# Method in brief: as §1
# [9] = target: Neu5Ac(a2-3)Gal(b1-3)GlcNAc(b1-2)Man(a1-3)[Neu5Ac(a2-3)Gal(b1-3)GlcNAc(b1-2)Man(a1-6)]Man(b1-4)GlcNAc(b1-4)GlcNAc
# Method in brief: as §1
# [10] = target: Neu5Ac(a2-3)Gal(b1-3)GlcNAc(b1-3)Gal(b1-3)GlcNAc
# Method in brief: as §1
# [11] = target: Neu5Ac(a2-3)Gal(b1-3)GlcNAc(b1-3)Gal(b1-4)GlcNAc
# Method in brief: as §1
# [12] = target: Neu5Ac(a2-3)Gal(b1-3)GlcNAc(b1-3)GalNAc
# Method in brief: as §1
# [13] = target: Neu5Ac(a2-3)Gal(b1-3)GlcNAc(b1-4)Gal(b1-4)Glc
# Method in brief: as §1
# [14] = target: Neu5Ac(a2-3)Gal(b1-3)GlcNAc(b1-6)GalNAc
# Method in brief: as §1
# [15] = target: Neu5Ac(a2-3)Gal(b1-3)GlcNAc6S
# Method in brief: as §1
# [16] = target: Neu5Ac(a2-3)Gal(b1-3)[Fuc(a1-4)]GlcNAc
# Method in brief: as §1
# [17] = target: Neu5Ac(a2-3)Gal(b1-3)[Fuc(a1-4)]GlcNAc(b1-3)Gal(b1-3)[Fuc(a1-4)]GlcNAc
# Method in brief: as §1
# [18] = target: Neu5Ac(a2-3)Gal(b1-3)[Fuc(a1-4)]GlcNAc(b1-3)Gal(b1-4)[Fuc(a1-3)]GlcNAc
# Method in brief: as §1
# [19] = target: Neu5Ac(a2-3)Gal(b1-3)[GlcNAc(b1-6)]GalNAc
# Method in brief: as §1
# [20] = target: Neu5Ac(a2-3)Gal(b1-3)[Neu5Ac(a2-6)]GalNAc
# Method in brief: as §1
# [21] = target: Neu5Ac(a2-3)Gal(b1-3)[Neu5Ac(a2-6)]GlcNAc(b1-3)[Fuc(a1-3)[Gal(b1-4)]GlcNAc(b1-6)]Gal(b1-4)Glc
# Method in brief: as §1
# [22] = target: Neu5Ac(a2-3)Gal(b1-3)]Neu5Ac(a2-3)Gal(b1-4)]GlcNAc
# Method in brief: as §1
# Neu5Ac(a2-3)Gal(b1-4)Glc = target: Neu5Ac(a2-3)Gal(b1-4)Glc
# Method in brief: as §1
# [23] = target: Neu5Ac(a2-3)Gal(b1-4)GlcNAc
# Method in brief: as §1
# [24] = target: Neu5Ac(a2-3)Gal(b1-4)GlcNAc(b1-2)Man
# Method in brief: as §1
# [25] = target: Neu5Ac(a2-3)Gal(b1-4)GlcNAc(b1-2)Man(a1-3)[GlcNAc(b1-4)][Neu5Ac(a2-3)Gal(b1-4)GlcNAc(b1-2)Man(a1-6)]Man(b1-4)GlcNAc(b1-4)GlcNAc
# Method in brief: as §1
# [26] = target: Neu5Ac(a2-3)Gal(b1-4)GlcNAc(b1-2)Man(a1-3)[Neu5Ac(a2-3)Gal(b1-4)GlcNAc(b1-2)Man(a1-6)]Man(b1-4)GlcNAc(b1-4)GlcNAc
# Method in brief: as §1
# [27] = target: Neu5Ac(a2-3)Gal(b1-4)GlcNAc(b1-2)Man(a1-3)[Neu5Ac(a2-3)Gal(b1-4)GlcNAc(b1-2)Man(a1-6)]Man(b1-4)GlcNAc(b1-4)[Fuc(a1-6)]GlcNAc
# Method in brief: as §1
# [28] = target: Neu5Ac(a2-3)Gal(b1-4)GlcNAc(b1-2)Man(a1-3)[Neu5Ac(a2-6)Gal(b1-4)GlcNAc(b1-2)Man(a1-6)]Man(b1-4)GlcNAc(b1-4)GlcNAc
# Method in brief: as §1
# [29] = target: Neu5Ac(a2-3)Gal(b1-4)GlcNAc(b1-2)[Neu5Ac(a2-3)Gal(b1-4)GlcNAc(b1-4)]Man(a1-3)[GlcNAc(b1-4)][Neu5Ac(a2-3)Gal(b1-4)GlcNAc(b1-2)[Neu5Ac(a2-3)Gal(b1-4)GlcNAc(b1-6)]Man(a1-6)]Man(b1-4)GlcNAc(b1-4)GlcNAc
# Method in brief: as §1
# [30] = target: Neu5Ac(a2-3)Gal(b1-4)GlcNAc(b1-2)[Neu5Ac(a2-3)Gal(b1-4)GlcNAc(b1-4)]Man(a1-3)[GlcNAc(b1-4)][Neu5Ac(a2-3)Gal(b1-4)GlcNAc(b1-4)Man(a1-6)]Man(b1-4)GlcNAc(b1-4)GlcNAc
# Method in brief: as §1
# [31] = target: Neu5Ac(a2-3)Gal(b1-4)GlcNAc(b1-2)[Neu5Ac(a2-3)Gal(b1-4)GlcNAc(b1-6)]Man(a1-6)[Neu5Ac(a2-3)Gal(b1-4)GlcNAc(b1-2)Man(a1-3)]Man(b1-4)GlcNAc(b1-4)GlcNAc
# Method in brief: as §1
# [32] = target: Neu5Ac(a2-3)Gal(b1-4)GlcNAc(b1-2)[Neu5Ac(a2-3)Gal(b1-4)GlcNAc(b1-6)]Man(a1-6)[Neu5Ac(a2-3)Gal(b1-4)GlcNAc(b1-2)Man(a1-3)][GlcNAc(b1-4)]Man(b1-4)GlcNAc(b1-4)GlcNAc
# Method in brief: as §1
# [33] = target: Neu5Ac(a2-3)Gal(b1-4)GlcNAc(b1-3)Gal
# Method in brief: as §1
# [34] = target: Neu5Ac(a2-3)Gal(b1-4)GlcNAc(b1-3)Gal(b1-3)GlcNAc
# Method in brief: as §1
# [35] = target: Neu5Ac(a2-3)Gal(b1-4)GlcNAc(b1-3)Gal(b1-4)GlcNAc
# Method in brief: as §1
# [36] = target: Neu5Ac(a2-3)Gal(b1-4)GlcNAc(b1-3)Gal(b1-4)GlcNAc(b1-2)Man(a1-3)[Neu5Ac(a2-3)Gal(b1-4)GlcNAc(b1-3)Gal(b1-4)GlcNAc(b1-2)Man(a1-6)]Man(b1-4)GlcNAc(b1-4)GlcNAc
# Method in brief: as §1
binder,measurement,setting,value
B1,glycan array binding signal (z-score),[1],-0.207
same,glycan array binding signal (z-score),[2],-0.456
same,glycan array binding signal (z-score),[3],-0.225
same,glycan array binding signal (z-score),[4],-0.483
same,glycan array binding signal (z-score),[5],-0.315
same,glycan array binding signal (z-score),[6],-0.454
same,glycan array binding signal (z-score),[7],-0.556
same,glycan array binding signal (z-score),[8],-0.392
same,glycan array binding signal (z-score),[9],-0.188
same,glycan array binding signal (z-score),[10],-0.165
same,glycan array binding signal (z-score),[11],-0.413
same,glycan array binding signal (z-score),[12],-0.552
same,glycan array binding signal (z-score),[13],0
same,glycan array binding signal (z-score),[14],0.005
same,glycan array binding signal (z-score),[15],0.048
same,glycan array binding signal (z-score),[16],-0.128
same,glycan array binding signal (z-score),[17],-0.272
same,glycan array binding signal (z-score),[18],0.056
same,glycan array binding signal (z-score),[19],-0.24
same,glycan array binding signal (z-score),[20],-0.299
same,glycan array binding signal (z-score),[21],-0.186
same,glycan array binding signal (z-score),[22],-0.127
same,glycan array binding signal (z-score),Neu5Ac(a2-3)Gal(b1-4)Glc,-0.48
same,glycan array binding signal (z-score),[23],-0.308
same,glycan array binding signal (z-score),[24],-0.255
same,glycan array binding signal (z-score),[25],-0.549
same,glycan array binding signal (z-score),[26],-0.412
same,glycan array binding signal (z-score),[27],-0.627
same,glycan array binding signal (z-score),[28],0.063
same,glycan array binding signal (z-score),[29],-0.34
same,glycan array binding signal (z-score),[30],-0.484
same,glycan array binding signal (z-score),[31],0.043
same,glycan array binding signal (z-score),[32],-0.382
same,glycan array binding signal (z-score),[33],-0.075
same,glycan array binding signal (z-score),[34],-0.46
same,glycan array binding signal (z-score),[35],-0.442
same,glycan array binding signal (z-score),[36],-0.274
